# The list shows a part of the results.
# System: HSkMC (human skeletal muscle cells)
# Test: cytotoxicity call (relative viability < 0.9)
# Conditions: 10 µM
row,Compound,cytotoxicity call
1,CO[C@@H]1CN(C)C(=O)c2ccc(NC(=O)c3ccccc3)cc2OC[C@H](C)N(C(=O)CN(C)C)C[C@@H]1C,inactive
2,Nc1cc(F)ccc1CO,inactive
3,Cc1ccc(S(=O)(=O)Nc2cccc3c2O[C@@H](CN(C)C(=O)Nc2cccc4ccccc24)[C@@H](C)CN([C@@H](C)CO)C3=O)cc1,inactive
4,O=c1[nH]c(=O)n(C2CC(O)C(CO)O2)cc1C(F)(F)F (configuration not stated),inactive
5,C[C@@H]1CCCCO[C@@H](CN(C)Cc2ccc(C(F)(F)F)cc2)[C@H](C)CN([C@H](C)CO)C(=O)c2cc(NC(=O)c3ccccc3)ccc2O1,inactive
6,C[C@@H]1CCCCO[C@H](CN(C)C(=O)Cc2ccccc2)[C@@H](C)CN([C@H](C)CO)C(=O)c2cc(NS(=O)(=O)c3ccc(F)cc3)ccc2O1,inactive
7,C[C@@H]1CN([C@@H](C)CO)C(=O)Cc2cc(NC(=O)Nc3ccc4c(c3)OCO4)ccc2O[C@@H]1CN(C)Cc1ccc(Cl)c(Cl)c1,inactive
8,C[C@@H]1O[C@@H](Oc2c(-c3cc(O)c(O)c(O)c3)oc3cc(O)cc(O)c3c2=O)[C@H](O)[C@H](O)[C@H]1O,inactive
9,O=C(CN1CCOCC1)N[C@@H]1CC[C@H](CCn2cc(C3CCCC3)nn2)O[C@@H]1CO,inactive

# System: S. aureus RN4220
# Test: growth inhibition call (relative growth <= 0.2)
# Conditions: 50 µM
row,Compound,growth inhibition call
1,CC(C)NC(=O)Nc1ccc2c(c1)C(=O)N([C@H](C)CO)C[C@H](C)[C@H](CN(C)Cc1ccccc1)OCCCC[C@H](C)O2,inactive
2,CCS(=O)(=O)N1CC[C@]2(CC1)CN([C@@H](CO)c1c2c2ccc(cc2n1C)OC)S(=O)(=O)c1ccccc1,inactive
3,C[C@H]1CN([C@@H](C)CO)C(=O)c2cc(NC(=O)Cn3cnnn3)ccc2O[C@H]1CN(C)S(=O)(=O)c1ccc(Cl)cc1,inactive
4,COc1ccc(C#Cc2cnc3c(c2)C(=O)N([C@H](C)CO)C[C@@H](C)[C@@H](CN(C)C(=O)CN(C)C)O3)cc1,inactive
5,C[C@H](O)C#Cc1ccc2c(c1)O[C@H](CN(C)C(=O)c1ccccc1)[C@H](C)CN([C@@H](C)CO)S2(=O)=O,inactive
6,C[C@@H]1CCCCO[C@H](CN(C)C(=O)Nc2ccc(F)cc2)[C@H](C)CN([C@@H](C)CO)C(=O)c2cc(NC(=O)C3CCCCC3)ccc2O1,inactive
7,C[C@H](CO)N1C[C@H](C)[C@H](CN(C)C(=O)CN(C)C)Oc2cc(C#CCN(C)C)ccc2S1(=O)=O,inactive
8,O=S(=O)(NCC[C@@H]1CC[C@@H](NS(=O)(=O)c2ccccc2Cl)[C@H](CO)O1)c1ccc(F)cc1,inactive
9,C[N+](C)(C)CCCCNC(=O)[C@@H]1C[C@@H]2C(=O)N3CCC[C@H]3C(=O)N2[C@@H]1c1cccc(OCCO)c1,inactive
10,C[C@H]1CN([C@@H](C)CO)C(=O)c2cc(NC(=O)CCCCCC(=O)Nc3ccccc3N)ccc2O[C@H]1CN(C)Cc1ccc(Oc2ccccc2)cc1,inactive
11,CCS(=O)(=O)N1C[C@]2(CN(C2)C(=O)CN2CCOCC2)c2c(n(c3cc(ccc23)OC)C)[C@H]1CO,inactive
12,CCC(=O)NCc1nccc(N(C)C)n1,inactive
13,CN1C(=O)c2cc(NC(=O)C3CCOCC3)ccc2OC[C@@H]2O[C@@H](CC(=O)NCCc3ccncc3)CC[C@@H]21,inactive
14,C[C@@H]1CN([C@H](C)CO)C(=O)c2cc(C#Cc3ccccc3F)cnc2O[C@H]1CN(C)C(=O)Cc1ccncc1,inactive
15,O=C(O)CCCN1C(=O)CSC1=S,inactive
16,C[C@@H]1CN([C@H](C)CO)C(=O)Cc2cc(NC(=O)c3ccncc3)ccc2O[C@H]1CN(C)S(=O)(=O)c1cn(C)cn1,inactive
17,O=C(c1ccccc1O)N1CCOCC1,inactive
18,C[C@@H]1CCCCO[C@@H](CN(C)C(=O)Nc2cccc3ccccc23)[C@@H](C)CN([C@H](C)CO)C(=O)c2cc(NS(=O)(=O)c3ccc(Cl)cc3)ccc2O1,inactive
19,NNC(=O)Cc1nc2ccccc2[nH]1,inactive
20,C[C@H]1CN([C@@H](C)CO)C(=O)c2cc(NS(=O)(=O)c3ccc(Cl)cc3)ccc2O[C@H]1CN(C)Cc1ccc(C(=O)Nc2ccccc2N)cc1,inactive
21,C[C@H]1CN([C@@H](C)CO)C(=O)Cc2cc(NC(=O)Nc3cccc4ccccc34)ccc2O[C@H]1CN(C)C(=O)Nc1ccc(F)cc1,inactive
22,C[C@H](CO)N1C[C@H](C)[C@H](CN(C)C(=O)Nc2cc(F)ccc2F)Oc2cc(/C=C/c3ccccc3)ccc2S1(=O)=O,inactive
23,O=C(C=Cc1ccc(O)c(O)c1)OC1CC(O)(C(=O)O)CC(O)C1O (configuration not stated),inactive
